Results reported in PubChem BioAssay AID686978 (National Center for Advancing Translational Sciences (NCATS), 2013).
Where “and” joins values, the source holds several entries; their conditions need not be identical. Equal entries are not always repeated. About 64,000 (15%) of roughly 420,000 compounds were called active. The inconclusive results got no clear call from the source; some entries with a clear call stand among them for comparison. Calls come from the whole dose curve; as a rule, active = well fitted inhibition curve with a large enough effect; inconclusive = small, poorly fitted or top-dose-only effect; inactive = flat fitted curve, though single readings scatter. No potency is given beside an inconclusive call; the fits are too rough.

Test: qHTS for Inhibitors of human tyrosyl-DNA phosphodiesterase 1 (TDP1): qHTS in cells in absence of CPT; note: nearly all actives have a fitted effect of over 55% in size
Conditions: DT40 Tdp1-/- hTDP1 cells, no CPT, ATP luminescence, 48 h; activity change, negative = growth inhibition: at 46.2 µM (top of the series) unless noted
Outline: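 Growth kinetics read by CellTiter-Glo luminescence after ≥48 hr at 37 °C. Cells: DT40 Tdp1-/- stably carrying human TDP1, 400 per well, compound exposure in the absence of CPT (DMSO vehicle).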
% is set by controls: 0 for no effect and ±100 for the full control effect; potency is the fitted concentration of half-maximal effect; tags give direction and shape of the fitted curve.

| SMILES | Potency | activity change, negative = growth inhibition |
| --- | --- | --- |
| Cc1ccc(S(=O)(=O)NCC(=O)OCN2C(=O)c3ccccc3C2=O)cc1 | active: 20.6 µM | – |
| COc1ccc(OC(C)C(=O)N(C)Cc2nc(-c3ccc(OC)cc3)no2)cc1 (stereo not drawn) | inconclusive [inhibitor, single point] | – |
| N#Cc1nc(-c2ccco2)oc1N1CCc2ccccc2C1 | inconclusive [inhibitor, single point] | – |
| Cn1c(-c2sccc2OCc2ccccc2)n[nH]c1=S | inconclusive [inhibitor, single point] | – |
| Cn1c(-c2cccc(Br)c2)cnc1NCc1cccc(F)c1 | inconclusive [inhibitor, single point] | – |
| Cc1cc(C(N)=O)c2ccccc2n1 | inactive | – |
| CC[C@@]12C(=O)N(c3cccc(Br)c3)C(=O)N1[C@H](c1ccc(OC)cc1)[C@@H]1C(=O)N(C(C)(C)C)C(=O)[C@@H]12 | inconclusive [inhibitor, single point] | – |
| CC(=O)c1c(C)[nH]c(C(=O)CSc2nnc(-c3ccco3)n2Cc2ccccc2)c1C | active: 16.4 µM | – |
| Cc1ccc2cc(CN(CCN3CCCC3)C(=O)Nc3ccc(F)cc3)c(=O)[nH]c2c1C | active: 18.4 µM | – |
| O=C(NCCCn1cccn1)c1cc(COc2ccc(F)cc2Cl)on1 | inactive | – |
| CCCCCCCCN1C(=O)[C@H](CC(=O)NCCc2ccccc2OC)C[C@@]2(C(=O)OCC)CCCC=C12 | active: 29.1 µM | – |
| CC(=O)CCc1ccc(OCC(O)CNCCOc2ccc(C)cc2)cc1 (stereo not drawn) | inactive | – |
| CCOC(=O)CN1N=C(/C=C/c2ccc(C)cc2)CCC1=O | – | inconclusive: -34.9% [inhibitor] |
| O=C(CCc1nc2ccccc2c(=O)[nH]1)OCc1ccc(Cl)cc1Cl | inactive | – |
| CCCS(=O)(=O)c1c(S(=O)(=O)CCC)c2cc(C(C)(C)C)ccn2c1C(=O)c1ccc(C)cc1 | active: 14.6 µM | – |
| COCCNC(=S)N/N=C(\C)c1ccc(OC(F)F)cc1 | inactive | – |
| Cc1ccc(S(=O)(=O)n2cc(CO)c3ccccc32)cc1 | – | inconclusive: -30.9% [inhibitor] |
| CC1CN(C(=O)CCC(=O)NCCCN2CCN(Cc3ccccc3)CC2)c2cc(Cl)ccc2O1 (stereo not drawn) | inconclusive [inhibitor, single point] | – |
| COc1ccc(N2C(=O)C3C4C=CC(C4)C3C2=O)c(OC)c1 (stereo not drawn) | inactive | – |
| CSc1ccc(CN2CCN(CCC(C)C)C(CCO)C2)cc1 (stereo not drawn) | inconclusive [inhibitor, single point] | – |
| COc1ccc2c(c1)C(=O)C(=O)N2CC1COc2ccccc2O1 (stereo not drawn) | active: 0.58 µM | – |
| CN(C)CCNC(=O)c1cccc(-c2cccc3nccn23)c1 | inactive | – |
| CCN(CC)S(=O)(=O)c1cccc(C(=O)NC(Cc2c[nH]c3ccccc23)c2nnc3n2CCCCC3)c1 (stereo not drawn) | inconclusive [inhibitor, single point] | – |
| Cc1ccc(NCc2nnc(SCC(=O)NCc3ccco3)n2CC2CCCO2)cc1Cl (stereo not drawn) | inconclusive [inhibitor, single point] | – |
| COc1cc(SC)ccc1C(=O)N1CCn2c3c(c4cc(C)ccc42)CCCC31 (stereo not drawn) | inconclusive [inhibitor, single point] | – |

| SMILES | Potency | activity change, negative = growth inhibition |
| --- | --- | --- |
| CCC(C)NC(=O)c1ccc(Cn2c(=O)c3cccn3c3cccnc32)cc1 (stereo not drawn) | inconclusive [inhibitor, full curve, poor fit] | – |
| O=C(NCc1ccccc1)C(c1cccs1)N(C(=O)c1csnn1)C1CC1 (stereo not drawn) | inconclusive [inhibitor, partial curve, poor fit] | – |
| Cc1cccc(C)c1NC(=O)c1sccc1SCC#N | inconclusive [inhibitor, single point] | – |
| NNC(=O)C1CC(O)CN1S(=O)(=O)c1ccc2ccccc2c1 (stereo not drawn) | inactive | – |
| O=c1c2c(nc3cc(-c4ccc(Cl)cc4)[nH]n13)CCS2 | inconclusive [inhibitor, partial curve, poor fit] | – |
| CN(C)CCNc1nc2sc3c(c2c(=O)n1-c1ccccc1)CCCCC3 | inconclusive [inhibitor, single point] | – |
| Cc1ccc(C)c(N2CCN(C(=O)CCc3c(C)nn(-c4ccc(N5CCCC5)nn4)c3C)CC2)c1 | inconclusive [inhibitor, single point] | – |
| Cc1ccc(C(=O)Nc2c(C)nc3ccccn3c2=O)cc1 | inactive | – |
| COc1ccccc1CNC(=O)CSc1nc2nc(C)c(Cc3ccccc3C)c(C)n2n1 | active: 5.17 µM | – |
| CC(=O)Nc1ccccc1OCC(=O)NCCC1=CCCCC1 | inconclusive [inhibitor, partial curve] | – |
| O=c1cc(CNc2ccc(Br)cc2)nc2sccn12 | inconclusive [inhibitor, partial curve] | – |
| CC1(C)CC(=O)C2=C(C1)N(CCN1CCOCC1)C1=C(C(=O)CC(C)(C)C1)C2c1ccc(Cl)c([N+](=O)[O-])c1 | inconclusive [inhibitor, single point] | – |
| Oc1c(C(c2cccc(Br)c2)N2CCCC2)sc2nc(-c3ccco3)nn12 (stereo not drawn) | inactive | – |
| CCOC(=O)c1c(/N=C/N(C)C)sc(/C=N/Nc2ccccc2)c1-c1ccccc1Cl | inconclusive [inhibitor, single point] | – |
| CCCCCCN1CCN(C2CN(CCCC)S(=O)(=O)C2)CC1 (stereo not drawn) | inconclusive [inhibitor, single point] | – |
| CCn1c(SCc2ccccc2)nnc1C1CCCCC1 | inconclusive [inhibitor, single point] | – |
| O=C(CCCCCn1c(=O)[nH]c2ccsc2c1=O)NCc1ccccc1 | inactive | – |
| Cc1cc(C(=O)CSc2nnc(Nc3ccccc3F)s2)c(C)n1CC1CCCO1 (stereo not drawn) | inconclusive [inhibitor, single point] | – |
| CNC(=O)C[C@H]1C(=O)N(CCc2ccccc2)C[C@@H]1Cc1ccccc1 | inconclusive [inhibitor, single point] | – |
| O=C(O)CC1CCC(=C(Cl)Cl)C1 (stereo not drawn) | active: 2.91 µM | – |
| Cc1ccc2c(c1)cc1c(=O)n(CC(=O)NC(C)CCc3ccccc3)nc(C)n12 (stereo not drawn) | inactive | – |
| CC(=O)N1CCN(c2ccc([N+](=O)[O-])cc2)CC1 | inactive | – |
| Cc1ccc(-c2csc(/C(C#N)=C(\O)CCl)n2)cc1 | inconclusive [inhibitor, single point] | – |
| COc1cccc(NC(=O)c2csc3c2CCCC3)c1 | – | inconclusive: -32.7% [inhibitor] |
| Cc1nc(SCC(=O)NCCc2ccccc2)nc(C)c1C | inconclusive [inhibitor, partial curve, poor fit] | – |

| SMILES | Potency | activity change, negative = growth inhibition |
| --- | --- | --- |
| COc1cccc(NC(=O)CN(C)CC(=O)Nc2ccc(C)cc2Cl)c1 | active: 13 µM | – |
| CCCCCC(=O)N/N=C/c1ccc([N+](=O)[O-])o1 | inconclusive [inhibitor, single point] | – |
| CCOC(=O)C1CCN(C(=O)c2cc3ccc(OC)cc3[nH]2)CC1 | inconclusive [inhibitor, single point] | – |
| CCOC(=O)c1nn(-c2ccccc2)c2nc(-c3ccc(OC)cc3)c(C#N)c(=O)n12 | inactive | – |
| CC1CC1C(=O)OCC(=O)Nc1ccccc1Oc1ccccc1 (stereo not drawn) | inconclusive [inhibitor, single point] | – |
| Cc1ccc(-c2cnc(C(O)c3ccc(Cl)c(F)c3)[nH]2)cc1 (stereo not drawn) | inconclusive [inhibitor, single point] | – |
| COc1ccc(NC(=O)CN(C)C(=O)CCCSc2nc3ccccc3[nH]2)cc1 | inactive | – |
| O=C(NCc1cccs1)c1ccc(CSc2nc3cccnc3n2Cc2ccc(F)cc2)cc1 | inconclusive [inhibitor, single point] | – |
| CCOC(=O)C[C@H]1c2ccccc2S(=O)(=O)N1Cc1cc(OC)c(OC)c(OC)c1 | active: 11.2 µM and active: 10.3 µM | – |
| CCOc1ccc(-c2nnc(NC(=O)Cc3cc(OC)c(OC)c(OC)c3)o2)cc1 | inactive | – |
| COc1ccc(C2=NN3C(=O)c4c(ccc(OC)c4OC)C3C2)cc1 (stereo not drawn) | inconclusive [inhibitor, single point] | – |
| O=C(NCCCCNC(=O)C(F)(F)F)C(F)(F)F | inactive | – |
| COc1ccccc1CNc1ccc(-c2nc(-c3ccccc3C)no2)cc1[N+](=O)[O-] | inconclusive [inhibitor, full curve, poor fit] | – |
| CCc1ccccc1NC(=O)CSc1nc2n[nH]c(C)c2c(=N)n1-c1cccc(C)c1 | active: 3.66 µM | – |
| COC(=O)Cn1cnc2c(Cl)nc(F)nc21 | active: 16.4 µM | – |
| O=C(Cc1cccc(NC(=O)C2CCCN(C(=O)C3CCC3)C2)c1)Nc1ccc(C(=O)N2CCCCC2)cc1 (stereo not drawn) | inactive | – |
| Cn1c2c(c(=O)n(C)c1=O)C(c1ccccc1[N+](=O)[O-])CC(=O)N2 (stereo not drawn) | inconclusive [inhibitor, single point] | – |
| COc1cc2[nH]c(=O)c(C(=O)NCc3ccc(C)cc3)c(O)c2cc1OC | inconclusive [inhibitor, partial curve] | – |
| COCCNC(=O)C1(C)Cc2c(-c3ccc(N(C)C)cc3)ccnc2O1 (stereo not drawn) | active: 4.61 µM | – |
| COc1cc(CN(C)C(=O)C2CCN(S(=O)(=O)c3cccs3)CC2)ccc1OC(F)F | – | inconclusive: -33.1% [inhibitor] |
| Cc1ccccc1OCCNCC(C)O (stereo not drawn) | inactive | – |
| CN1C(=O)[C@H]2[C@@H](C3CC3)N3C(=O)CN(Cc4ccc(-c5ccccc5)cc4)C(=O)[C@@]3(C)[C@H]2C1=O | inactive | – |
| C=CC[C@@H](CC(=O)NCCO)C(=O)NC[C@H](OC(=O)[C@@H](CC=C)Cc1ccc(F)cc1)c1ccccc1 | active: 11.6 µM | – |
